Measurements reported in PubChem BioAssay AID1476 (National Center for Advancing Translational Sciences (NCATS), 2009).
The whole screen tested about 200,000 compounds, of which about 4,500 (2.2%) were called active. This list was built around the results that the source calls inconclusive (neither active nor inactive); the mix of calls is not that of the screen. Calls come from the whole dose curve; as a rule, active = well fitted inhibition curve with a large enough effect; inconclusive = small, poorly fitted or top-dose-only effect, or effect the other way; inactive = flat fitted curve, though single readings scatter. Where the call is inconclusive, the potency comes from a doubtful curve fit.

These molecules were tested against Cruzipain (Trypanosoma cruzi) (UniProt P25779) (assay: qHTS Assay for Promiscuous and Specific Inhibitors of Cruzain (without detergent)). Conditions: purified cruzain, Z-FR-AMC fluorescence, no detergent.
Chain of UniProt P25779 (P25779 whole entry, looked up): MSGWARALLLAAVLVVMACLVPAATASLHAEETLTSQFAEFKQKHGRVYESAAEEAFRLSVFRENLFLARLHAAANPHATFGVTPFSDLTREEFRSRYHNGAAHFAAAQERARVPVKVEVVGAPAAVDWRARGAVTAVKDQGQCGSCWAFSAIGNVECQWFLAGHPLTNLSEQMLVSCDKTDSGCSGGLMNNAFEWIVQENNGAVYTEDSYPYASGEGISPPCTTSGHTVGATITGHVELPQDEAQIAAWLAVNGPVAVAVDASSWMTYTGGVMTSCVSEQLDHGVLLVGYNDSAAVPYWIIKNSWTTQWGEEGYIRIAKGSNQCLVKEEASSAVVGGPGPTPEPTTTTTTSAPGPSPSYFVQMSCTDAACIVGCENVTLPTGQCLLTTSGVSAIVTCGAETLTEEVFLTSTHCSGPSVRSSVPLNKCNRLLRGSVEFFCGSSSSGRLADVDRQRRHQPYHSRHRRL
Procedure, shortened: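 Purified cruzain at 1.5 nM, pre-incubated 15 min with compound at room temperature in 100 mM sodium acetate pH 5.5, 5 mM DTT, 0.00005% Triton X-100. Reaction started with 2 uM Z-FR-AMC; AMC fluorescence increase over 60 s gives rate.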
Note: nearly all actives have a fitted effect of over 40% in size.
Potency is the fitted concentration of half-maximal effect; tags give direction and shape of the fitted curve.
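Throughout, for max response, negative = inhibition: plate controls were enzyme without inhibitor for no effect and buffer without enzyme for full effect.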

| SMILES | Potency | max response, negative = inhibition |
| --- | --- | --- |
| CCOc1nc(NC(=O)NC(=O)c2ccccc2)nc(-c2ccccc2)n1 | inconclusive: 31.6 µM [inhibitor, single point] | – |
| C=CCc1ccccc1OCCSc1nc(-c2ccc(C(C)(C)C)cc2)nc2cc(=O)[nH]n12 | active: 3.98 µM | – |
| O=C(NCc1ccco1)c1cc2nc(-c3ccc4c(c3)OCO4)cc(C(F)(F)F)n2n1 | inconclusive: 39.8 µM [activator, single point] | – |
| Oc1ccccc1-c1cc(C(F)(F)C(F)F)nc(-c2ccccc2)n1 | inconclusive: 39.8 µM [inhibitor, single point] | – |
| Cc1cc(C)nc(NS(=O)(=O)c2ccc(NC(=O)COc3ccc(Cl)cc3C)cc2)n1 | inconclusive: 25.1 µM [activator, single point] | – |
| Cc1nc(C)c(C(=O)N(c2ccc(C)c(C)c2)C(C(=O)NCc2ccco2)c2ccccc2)s1 (stereo not given) | inconclusive: 31.6 µM [activator, single point] | – |
| CCOc1cc(-c2ccc(OC(=O)c3ccccc3F)cc2)cc(=O)c2c(C)oc(C)c12 | inconclusive: 39.8 µM [activator, single point] | – |
| CCOC(=O)c1ccc(NC(=O)c2cccc(S(=O)(=O)N3c4ccccc4CC3C)c2)s1 (stereo not given) | inconclusive: 31.6 µM [inhibitor, single point] | – |
| CSc1nccc(-c2cc(Cl)sc2Cl)n1 | – | inactive: -5.68% |
| COCCNC(=O)c1cnn(-c2ccc(C)cc2C)c1C1CCN(C(=O)OC(C)(C)C)CC1 | inconclusive: 15.8 µM [activator, partial curve] | – |
| COc1ccc(-n2c(/C=C/c3ccccc3F)nc3cc(OC)c(OC)cc3c2=O)cc1Cl | – | inactive: -8.35% |
| O=S(=O)(NC1CC1)c1ccc(S(=O)(=O)N2CCCC(c3nc(-c4cccnc4)no3)C2)cc1 (stereo not given) | inconclusive: 5.01 µM [activator, full curve, poor fit] | – |
| C/C(=C\C(=O)Nc1nccs1)c1ccccc1 | – | inactive: 3.29% |
| CC(C)CC(=O)N1CCN(C(=O)c2cccc(F)c2)CC1 | – | inactive: 2.01% |
| Cc1ccc(N=C2NC(=O)/C(=C/c3cn(C)c4ccccc34)S2)cc1C | active: 12.6 µM | – |
| CCCCCCCCNC(=O)C(CCC(=O)OCc1ccccc1)NC(C)=O (stereo not given) | inconclusive: 39.8 µM [activator, single point] | – |
| Cc1c(C(=O)Nc2cccc(-c3nnc4n3CCCCC4)c2)oc2ccccc12 | inconclusive: 39.8 µM [activator, single point] | – |
| O=C(O)c1cc2cc(Cl)cc(Cl)c2oc1=O | inconclusive: 25.1 µM [inhibitor, single point] | – |
| N=C(N)SCc1nc(-c2ccc(Cl)cc2)no1 | – | inactive: -1.56% |
| Cc1nn(C(=O)c2cccc([N+](=O)[O-])c2C)c(C)c1S(=O)(=O)N1CCOCC1 | – | inactive: 1.87% |
| CC(=O)Nc1ccc(S(=O)(=O)NCC2CCC(C(=O)NCCc3ccccc3)CC2)cc1 (stereo not given) | – | inactive: -2.5% |
| O=C(CSc1nnnn1-c1ccccc1)Nc1nsc(-c2ccc(Cl)cc2)n1 | inconclusive: 31.6 µM [inhibitor, single point] | – |

| SMILES | Potency | max response, negative = inhibition |
| --- | --- | --- |
| CCOC(=O)c1cn2nc(OP(=S)(OCC)OCC)cc2nc1C | inconclusive: 31.6 µM [activator, single point] | – |
| CC(C)c1ccc(S(=O)(=O)c2nnn3c2nc(NCCc2ccccc2)c2sccc23)cc1 | active: 10 µM | – |
| O=C(CN1CCN(S(=O)(=O)c2ccc(Br)cc2)CC1)Nc1ccccc1F | inconclusive: 25.1 µM [activator, single point] | – |
| O=C(NCc1cc(Br)cc(Br)c1OC(=O)c1ccccc1[N+](=O)[O-])c1ccccc1 | inconclusive: 39.8 µM [inhibitor, single point] | – |
| CCCc1cc(=O)oc2c(CN3CCCC3)c(O)c(Cl)cc12 | inconclusive: 39.8 µM [inhibitor, single point] | – |
| c1csc(CNc2nc(-c3ccoc3)nc3ccccc23)c1 | inconclusive: 31.6 µM [inhibitor, single point] | – |
| O=C(CCN1C(=O)C2C3C=CC(C3)C2C1=O)Nc1ccc(F)cc1 (stereo not given) | inconclusive: 1.58 µM [inhibitor, single point] | – |
| NNc1nc2c(Cl)c(Cl)ccc2s1 | inconclusive: 39.8 µM [inhibitor, single point] | – |
| COc1ccc(NC(=O)c2nc(S(C)(=O)=O)ncc2N(Cc2ccc(C)cc2)Cc2ccco2)cc1Cl | active: 10 µM | – |
| CC1(C)S[C@@H]2[C@H](C(=O)O)N=C(Cc3ccccc3)N2[C@H]1C(=O)O | – | inactive: 11% |
| COc1ccc(S(=O)(=O)N2CCN(C(=O)c3c(C)nn(-c4ccccc4)c3Cl)CC2)cc1 | inconclusive: 31.6 µM [activator, single point] | – |
| CCn1c2c(c(=O)n3ncc(C(=O)Nc4cc(Cl)ccc4OC)c13)CN(Cc1ccc(OC)cc1)CC2 | inconclusive: 31.6 µM [activator, single point] | – |
| N#Cc1c(-c2ccc(F)cc2)cc(C2CC2)nc1SCC(=O)c1cccs1 | inconclusive: 39.8 µM [inhibitor, single point] | – |
| O=C(N/N=C/c1ccc(Cl)cc1)c1cc2c(s1)-c1ccccc1CC2 | inconclusive: 31.6 µM [inhibitor, single point] | – |
| CCCCCOC(=O)c1ccccc1C(=O)OCCCCC | – | inactive: 8.77% |
| COc1ccc(NC(=O)c2oc3ccc(S(=O)(=O)N4CCC5(CC4)OCCO5)cc3c2C)cc1 | inconclusive: 39.8 µM [activator, single point] | – |
| Cc1nc2c(C(=O)NCc3ccc4c(c3)OCO4)c[nH]n2c(=O)c1Cl | inconclusive: 39.8 µM [activator, single point] | – |
| O=C(NNC(=O)c1cc(-c2ccccc2)nc2ccccc12)Nc1cccc(Cl)c1 | active: 20 µM | – |
| Cc1cc(C)cc(C(=O)OCC(=O)Nc2cccc(S(=O)(=O)NC3=NCCCCC3)c2)c1 | inconclusive: 39.8 µM [activator, single point] | – |
| Cc1cccc(NC(=O)CSc2nc3ccc(NC(=O)COc4ccccc4C)cc3s2)c1 | inconclusive: 31.6 µM [inhibitor, single point] | – |
| CCCn1c(=O)[nH]c(=O)c2c1nc(-c1ccc3c(c1)OCCO3)n2CCN1CCOCC1 | – | inactive: -2.27% |
| Cc1ccc(NC(=O)CC2S/C(=N/N=C/C=C/c3ccccc3)NC2=O)cc1Cl (stereo not given) | active: 5.01 µM | – |

| SMILES | Potency | max response, negative = inhibition |
| --- | --- | --- |
| CCOc1ccc(S(=O)(=O)N2Cc3ccccc3CC2C(=O)Nc2ccc(NC(C)=O)cc2)cc1 (stereo not given) | inconclusive: 31.6 µM [activator, single point] | – |
| COc1cccc2cc(C(=O)Nc3ccc(CC(=O)O)cc3)c(=O)oc12 | – | inactive: -14.3% |
| C=C[C@](C)(O)CCC=C(C)C | – | inactive: 3.63% |
| CC(C)CCn1c(=O)c2ccccc2n2c(COC(=O)c3ccc(S(=O)(=O)N(C)C)cc3)nnc12 | inconclusive: 31.6 µM [activator, single point] | – |
| Cc1cc(N2CCN(C(=O)c3ccco3)CC2)n2nc(C)c(-c3ccc(Cl)cc3)c2n1 | inconclusive: 31.6 µM [activator, single point] | – |
| Cc1ccc2c(c1)CN1CN2Cc2cc(C)ccc21 | – | inactive: 7.25% |
| CNC(=O)c1ccsc1NC(=O)c1ccc(S(=O)(=O)N2CCCc3ccccc32)cc1 | inconclusive: 39.8 µM [inhibitor, single point] | – |
| O=C(Cc1ccccc1)NC(=S)Nc1ccc2oc(-c3ccccc3)nc2c1 | inconclusive: 39.8 µM [inhibitor, single point] | – |
| COc1ccc(Cn2ccc3nc(C)c(C(=O)N4CCN(c5cccc(OC)c5)CC4)cc3c2=O)cc1 | inconclusive: 31.6 µM [activator, single point] | – |
| N#Cc1c(NC(=O)c2cc(-n3cnnc3)ccc2Cl)sc2c1CCCC2 | inconclusive: 31.6 µM [activator, single point] | – |
| COc1ccc(CN2CCc3c(c(=O)n4ncc(C(=O)N5CCN(c6ccccc6F)CC5)c4n3C)C2)cc1 | inconclusive: 39.8 µM [activator, single point] | – |
| CCc1ccc(NC(=O)CSc2nnc3[nH]c(=O)cc(-c4ccccc4)n23)cc1 | inconclusive: 3.16 µM [inhibitor, single point] | – |
| O=C(NCCc1ccccc1)c1ccc(OCCOc2ccccc2)cc1 | active: 20 µM | – |
| CN1CCN(c2nc(C#N)cc(-c3ccccc3)n2)CC1 | inconclusive: 31.6 µM [inhibitor, single point] | – |
| CCN(C(=O)CCc1nc(-c2ccc(C)cc2)no1)c1cccc(C(F)(F)F)c1 | inconclusive: 31.6 µM [activator, single point] | – |
| c1coc(-c2nc(-c3ccco3)c(-c3ccco3)nc2-c2ccco2)c1 | inconclusive: 3.16 µM [inhibitor, full curve, poor fit] | – |
| O=S(=O)(c1ccc(C2=CSC3=NCCN23)cc1)N1CCOCC1 | inconclusive: 15.8 µM [inhibitor, partial curve, poor fit] | – |
| COc1ccc(C)cc1NC(=O)Nc1nnc(N2CCCCC2)s1 | inconclusive: 31.6 µM [activator, single point] | – |
| O=S(=O)(c1ccc(F)cc1)c1nc(-c2ccco2)oc1Nc1ccc(F)cc1 | inconclusive: 25.1 µM [inhibitor, partial curve] | – |
| Cc1cc(C)cc(OCC(=O)Nc2ccc(N3CCN(S(C)(=O)=O)CC3)cc2)c1 | active: 15.8 µM | – |
| CC(=O)c1cn(CCCCCCCCCCn2cc(C(C)=O)c(=O)[nH]c2=O)c(=O)[nH]c1=O | inconclusive: 39.8 µM [inhibitor, single point] | – |
